Data as given in patent US20240182596A1, “ANTI-NAPI2B ANTIBODIES AND ANTIBODY-DRUG-CONJUGATES BASED THEREON, THERAPEUTIC METHODS AND USES THEREOF” (Tubulis GmbH, priority 2022, published 2024).

T1: HEK293 cells expressing human Napi2b (SLC34A2) (Homo sapiens, UniProt O95436)
T1 construct: expressed in transfected cells; host or cells: HEK293
T1 sequence (O95436 1-690): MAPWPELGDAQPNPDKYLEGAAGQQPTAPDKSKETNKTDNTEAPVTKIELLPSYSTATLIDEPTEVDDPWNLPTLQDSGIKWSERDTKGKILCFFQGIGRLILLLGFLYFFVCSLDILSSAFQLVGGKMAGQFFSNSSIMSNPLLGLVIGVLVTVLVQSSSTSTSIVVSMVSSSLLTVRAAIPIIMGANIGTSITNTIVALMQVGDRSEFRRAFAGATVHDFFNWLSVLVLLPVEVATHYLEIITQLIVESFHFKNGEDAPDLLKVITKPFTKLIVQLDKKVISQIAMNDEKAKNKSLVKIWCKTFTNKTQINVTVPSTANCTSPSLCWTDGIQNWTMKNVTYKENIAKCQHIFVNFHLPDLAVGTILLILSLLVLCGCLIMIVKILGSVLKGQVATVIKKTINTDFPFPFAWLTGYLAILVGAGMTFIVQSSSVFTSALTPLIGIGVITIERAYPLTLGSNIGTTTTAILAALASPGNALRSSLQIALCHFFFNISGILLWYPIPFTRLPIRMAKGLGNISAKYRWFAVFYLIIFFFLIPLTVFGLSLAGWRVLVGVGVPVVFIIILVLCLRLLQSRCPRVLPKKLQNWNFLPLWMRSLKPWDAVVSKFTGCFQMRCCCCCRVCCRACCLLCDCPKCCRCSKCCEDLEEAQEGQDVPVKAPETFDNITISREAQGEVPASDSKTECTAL


Legend:
[1] = target: T1, HEK293 cells expressing human Napi2b (SLC34A2); assay: Binding to human NaPi2b evaluated by flow cytometry (specificity); conditions: 0.002 to 200 nM
Experimental: To determine concentration-dependent binding, HEK293 cells transiently or stably expressing human Napi2a-, Napi2b- and Napi2c-mCherry were incubated with antibodies or ADCs in concentrations ranging from 0.002 to 200 nM, stained with an Alexa-dye-labeled anti-human IgG H+L secondary antibody (Thermo Fisher Scientific), and analyzed by flow cytometry. Mean fluorescence intensity (MFI) ratios were normalized to the non-specific binding control. The assay was performed in duplicates and data points were analyzed by a non-linear regression using a one-site specific binding model using Prism 9 software.

[2] = tested on: OVCAR-3 and HCC-78; assay: Calcein release-based ADCC assay with human NK cells; format: cell-based; conditions: 15 μg/ml, NK:target 4:1, 4 h
Experimental: • and AV25-P5(PEG24)-VC-PAB-Exatecan DAR8 vs the isotypes and an anti-MHC-I positive control (Invivogen) was analyzed, which is mediated after interaction with FcγRIIIa (CD16). For the Calcein release-based antibody-dependent cellular cytotoxicity (ADCC) assay, peripheral blood mononuclear cells (PBMCs) were isolated from healthy donor buffy coats (purchased from DONAS GmbH) using LeucoSep tubes (Greiner Bio-One) and Histopaque®-1077 (density 1.077 g/ml, Merck) density gradient according to standard protocols. Afterwards, natural killer (NK) cells were MACS (magnetic cell separation)-sorted using human NK cell isolation kit (Miltenyi Biotec) by negative selection according to the manufacturer's instructions yielding untouched human primary NK cells. Napi2b-positive target cells OVCAR-3 and HCC-78 (both Napi2b^high) were stained with 16 μM Calcein AM (Thermo Fisher Scientific). 40.000 NK cells and 10.000 Calcein-stained target cells were incubated at a 4:1 ratio in the presence of 15 μg/ml antibodies or ADCs. Cells permeabilized with 2.5% Triton X 100 (Merck) served as a positive control for maximum Calcein release. After 4 h, supernatants were transferred to a flat black non-binding 96-well plate (Greiner Bio-One) and fluorescence was measured at 485/535 nM via the Infinite M200 Pro reader (Tecan). The percent specific killing was calculated by dividing the Calcein released by antibody-mediated killing minus background Calcein release (NKs+targets) from Calcein released by Triton X-permeabilized cells (maximum killing) minus background Calcein release (targets only). Graphs show means of n=2±SEM.
Co-cultures of healthy donor (HD)-derived NK cells and calcein-stained target-positive tumor cells (OVCAR-3 and HCC-78), in a 4:1 ratio, were incubated with 15 μg/ml of indicated antibodies or ADCs (anti-MHC-I antibody served as positive control). The percentage of specific killing was calculated by deviding the calcein released by antibody-mediated cell killing from calcein released by Triton X-permeabilized cells (maximum killing). Graphs show means of n=2±SEM.

[3] = tested on: OVCAR-3 cells; assay: In vivo efficacy in cell line derived xenograft model (CDX); parameters: species or system CB17-Scid mice
Experimental: In brief, 1×10^7 OVCAR-3 cells (100 μL+100 μL Matrigel) were subcutaneously injected to CB17-Scid mice.

[4] = 5, 3 and 1 mg/kg, total and intact ADC
Experimental: All animal experiments were conducted in accordance with German animal welfare law and approved by local authorities. […] Treatment was initiated when tumours reached a mean tumour volume of 0.1-0.15 cm^3. […] Tumour volumes, body weights and general health conditions were recorded throughout the whole study.

| Molecule | Binding (MFI ratio) [1] | Binding (MFI ratio) ([1]; listed as AV25 mAb) | ADCC activity (specific killing) [2] | Tumor relapse ([3]; single dose as low as 1 mg/kg, until end of observation period) | Tumor response ([3]; single i.v. injection, all dose levels 1, 3 and 5 mg/kg) | PK exposure profiles and stability of the ADC [4] |
| --- | --- | --- | --- | --- | --- | --- |
| AV25: humanized anti-NaPi2b IgG1 antibody, light chain SEQ ID NO: 6, heavy chain SEQ ID NO: 7, Fc-silenced (LALA) (antibody, Heavy chain without a signal seqeunce; Light chain without a signal seqeunce) heavy: EVQLVQSGAEVVKPGASVKMSCKASGYTFTGYIIHWVKQAPGQGLEWIGAIYPGSGATSYKQKFRGRATLTADTSTSTVYMELSSLRSEDSAVYYCARGETARATFAYWGQGTLVTVSS[human IgG1 constant region with changes skipped] light: DIQMTQSPSSLSASVGDRVTITCSASQDIGNFLNWYQQKPGKTVKVLIYYASSLYSGVPSRFSGSGSGTDYTLTISSLQPEDFATYYCQQYSKLPLTFGQGTKLELKRTVAAPSVFIFPPSDEQLKSGTASVVCLLNNFYPREAKVQWKVDNALQSGNSQESVTEQDSKDSTYSLSSTLTLSKADYEKHKVYACEVTHQGLSSPVTKSFNRGEC | only shows binding to HEK293 cells overexpressing Napi2b | bind specifically to NaPi2b | did not induce ADCC or only in very low amounts | – | – | – |
| AV25-P5(PEG24)-VC-PAB-Exatecan DAR 8: AV25 antibody conjugated to P5(PEG24)-VC-PAB-Exatecan, DAR8 (conjugate) heavy: EVQLVQSGAEVVKPGASVKMSCKASGYTFTGYIIHWVKQAPGQGLEWIGAIYPGSGATSYKQKFRGRATLTADTSTSTVYMELSSLRSEDSAVYYCARGETARATFAYWGQGTLVTVSS[human IgG1 constant region with changes skipped] light: DIQMTQSPSSLSASVGDRVTITCSASQDIGNFLNWYQQKPGKTVKVLIYYASSLYSGVPSRFSGSGSGTDYTLTISSLQPEDFATYYCQQYSKLPLTFGQGTKLELKRTVAAPSVFIFPPSDEQLKSGTASVVCLLNNFYPREAKVQWKVDNALQSGNSQESVTEQDSKDSTYSLSSTLTLSKADYEKHKVYACEVTHQGLSSPVTKSFNRGEC | bind specifically to NaPi2b | – | did not induce ADCC or only in very low amounts | does not show any tumor relapse | Complete tumor remission | dose proportional exposure profiles and high stability |
